Reference: the supplement of paper PMC8728848
This is one part of the list.

Tests used:
Test in all cases: glycan array binding signal (z-score within array); higher = stronger binding
Details in all cases: glycan notation: IUPAC condensed, linker removed
[1] = target: Gal(a1-3)Gal(b1-4)GlcNAc(b1-2)Man
Method in brief: (§1)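 Glycan array binding is given as a within-array Z-score, which can be read as non-binding when negative. The arrays, 3228 of them, came from the Consortium for Functional Glycomics database and were retained only where the protein sequence was available. Z-scores were averaged across arrays of the same protein sequence at different concentrations or buffers and across linkers.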

[2] = target: Gal(a1-3)Gal(b1-4)GlcNAc(b1-2)Man(a1-3)[Gal(a1-3)Gal(b1-4)GlcNAc(b1-2)Man(a1-6)]Man(b1-4)GlcNAc(b1-4)GlcNAc
Method in brief: as §1

[3] = target: Gal(a1-3)Gal(b1-4)GlcNAc(b1-3)GalNAc
Method in brief: as §1

[4] = target: Gal(a1-3)Gal(b1-4)GlcNAc(b1-6)GalNAc
Method in brief: as §1

[5] = target: Gal(a1-3)Gal(b1-4)[Fuc(a1-3)]GlcNAc
Method in brief: as §1

[6] = target: Gal(a1-3)Gal(b1-4)[Fuc(a1-3)]GlcNAc(b1-2)Man(a1-3)[Gal(a1-3)Gal(b1-4)[Fuc(a1-3)]GlcNAc(b1-2)Man(a1-6)]Man(b1-4)GlcNAc(b1-4)GlcNAc
Method in brief: as §1

Gal(a1-3)GalNAc = target: Gal(a1-3)GalNAc
Method in brief: as §1

[7] = target: Gal(a1-3)[Gal(a1-4)]Gal(b1-4)GlcNAc
Method in brief: as §1

[8] = target: Gal(a1-4)Gal(b1-3)GlcNAc(b1-2)Man(a1-3)[Gal(a1-4)Gal(b1-3)GlcNAc(b1-2)Man(a1-6)]Man(b1-4)GlcNAc(b1-4)GlcNAc
Method in brief: as §1

Gal(a1-4)Gal(b1-4)Glc = target: Gal(a1-4)Gal(b1-4)Glc
Method in brief: as §1

Gal(a1-4)Gal(b1-4)GlcNAc = target: Gal(a1-4)Gal(b1-4)GlcNAc
Method in brief: as §1

[9] = target: Gal(a1-4)Gal(b1-4)GlcNAc(b1-2)Man(a1-3)[Gal(a1-4)Gal(b1-4)GlcNAc(b1-2)Man(a1-6)]Man(b1-4)GlcNAc(b1-4)GlcNAc
Method in brief: as §1

[10] = target: Gal(a1-4)Gal(b1-4)GlcNAc(b1-3)Gal(b1-4)Glc
Method in brief: as §1

Gal(a1-4)GlcNAc = target: Gal(a1-4)GlcNAc
Method in brief: as §1

Gal(a1-6)Glc = target: Gal(a1-6)Glc
Method in brief: as §1

Gal(b1-2)Gal = target: Gal(b1-2)Gal
Method in brief: as §1

Gal(b1-3)Gal = target: Gal(b1-3)Gal
Method in brief: as §1

Gal(b1-3)Gal(b1-4)GlcNAc = target: Gal(b1-3)Gal(b1-4)GlcNAc
Method in brief: as §1

Gal(b1-3)GalNAc = target: Gal(b1-3)GalNAc
Method in brief: as §1

[11] = target: Gal(b1-3)GalNAc(a1-3)[Fuc(a1-2)]Gal(b1-4)Glc
Method in brief: as §1

[12] = target: Gal(b1-3)GalNAc(a1-3)[Fuc(a1-2)]Gal(b1-4)GlcNAc
Method in brief: as §1

Gal(b1-3)GalNAc(b1-3)Gal = target: Gal(b1-3)GalNAc(b1-3)Gal
Method in brief: as §1

[13] = target: Gal(b1-3)GalNAc(b1-3)Gal(a1-4)Gal(b1-4)Glc
Method in brief: as §1

[14] = target: Gal(b1-3)GalNAc(b1-4)Gal(b1-4)Glc
Method in brief: as §1

[15] = target: Gal(b1-3)GalNAc(b1-4)[Neu5Ac(a2-3)]Gal(b1-4)Glc
Method in brief: as §1

Gal(b1-3)GlcNAc = target: Gal(b1-3)GlcNAc
Method in brief: as §1

[16] = target: Gal(b1-3)GlcNAc(a1-3)Gal(b1-4)GlcNAc
Method in brief: as §1

[17] = target: Gal(b1-3)GlcNAc(a1-6)Gal(b1-4)GlcNAc
Method in brief: as §1

Gal(b1-3)GlcNAc(b1-2)Man = target: Gal(b1-3)GlcNAc(b1-2)Man
Method in brief: as §1

[18] = target: Gal(b1-3)GlcNAc(b1-2)Man(a1-3)[Gal(b1-3)GlcNAc(b1-2)Man(a1-6)]Man(b1-4)GlcNAc(b1-4)GlcNAc
Method in brief: as §1

[19] = target: Gal(b1-3)GlcNAc(b1-2)Man(a1-3)[Gal(b1-3)GlcNAc(b1-2)Man(a1-6)]Man(b1-4)GlcNAc(b1-4)[Fuc(a1-6)]GlcNAc
Method in brief: as §1

[20] = target: Gal(b1-3)GlcNAc(b1-2)Man(a1-3)[GlcNAc(b1-4)][Gal(b1-3)GlcNAc(b1-2)Man(a1-6)]Man(b1-4)GlcNAc(b1-4)GlcNAc
Method in brief: as §1

[21] = target: Gal(b1-3)GlcNAc(b1-2)[Gal(b1-3)GlcNAc(b1-6)]Man(a1-6)[Gal(b1-3)GlcNAc(b1-2)Man(a1-3)]Man(b1-4)GlcNAc(b1-4)GlcNAc
Method in brief: as §1

[22] = target: Gal(b1-3)GlcNAc(b1-3)Gal(b1-3)GlcNAc
Method in brief: as §1

[23] = target: Gal(b1-3)GlcNAc(b1-3)Gal(b1-4)Glc
Method in brief: as §1

[24] = target: Gal(b1-3)GlcNAc(b1-3)Gal(b1-4)GlcNAc
Method in brief: as §1

[25] = target: Gal(b1-3)GlcNAc(b1-3)Gal(b1-4)GlcNAc(b1-2)Man(a1-3)[Gal(b1-3)GlcNAc(b1-3)Gal(b1-4)GlcNAc(b1-2)Man(a1-6)]Man(b1-4)GlcNAc(b1-4)GlcNAc
Method in brief: as §1

[26] = target: Gal(b1-3)GlcNAc(b1-3)Gal(b1-4)GlcNAc(b1-2)[Gal(b1-3)GlcNAc(b1-3)Gal(b1-4)GlcNAc(b1-6)]Man(a1-6)[Gal(b1-3)GlcNAc(b1-3)Gal(b1-4)GlcNAc(b1-2)Man(a1-3)]Man(b1-4)GlcNAc(b1-4)[Fuc(a1-6)]GlcNAc
Method in brief: as §1

[27] = target: Gal(b1-3)GlcNAc(b1-3)Gal(b1-4)GlcNAc(b1-3)Gal(b1-4)GlcNAc(b1-2)[Gal(b1-3)GlcNAc(b1-3)Gal(b1-4)GlcNAc(b1-3)Gal(b1-4)GlcNAc(b1-6)]Man(a1-6)[Gal(b1-3)GlcNAc(b1-3)Gal(b1-4)GlcNAc(b1-3)Gal(b1-4)GlcNAc(b1-2)Man(a1-3)]Man(b1-4)GlcNAc(b1-4)[Fuc(a1-6)]GlcNAc
Method in brief: as §1

[28] = target: Gal(b1-3)GlcNAc(b1-3)Gal(b1-4)GlcNAc(b1-6)[Gal(b1-3)GlcNAc(b1-3)]Gal(b1-4)Glc
Method in brief: as §1

[29] = target: Gal(b1-3)GlcNAc(b1-3)Gal(b1-4)[Fuc(a1-3)]GlcNAc
Method in brief: as §1

[30] = target: Gal(b1-3)GlcNAc(b1-3)Gal(b1-4)[Fuc(a1-3)]GlcNAc(b1-6)[Gal(b1-3)GlcNAc(b1-3)]Gal(b1-4)Glc
Method in brief: as §1

[31] = target: Gal(b1-3)GlcNAc(b1-3)GalNAc
Method in brief: as §1

[32] = target: Gal(b1-3)GlcNAc(b1-6)Gal(b1-4)GlcNAc
Method in brief: as §1

[33] = target: Gal(b1-3)GlcNAc(b1-6)GalNAc
Method in brief: as §1

B1: rEtpA (Escherichia coli) (protein)
chain: MNRIYKLKFDKRRNELVVVSEITTGVGNAKATGSVEGEKSPRRGVRAMALSLLSGMMIMAHPAMSANLPTGGQIVAGSGSIQTPSGNQMNIHQNSQNMVANWNSFDIGKGNTVQFDQPSSSAVALNRVVGGGESQIMGNLKANGQVFLVNPNGVLFGEGASVSTSGFVASTRDIKNDDFMNRRYTFSGGQKAGAAIVNQGELTTNAGGYIVLAADRVSNSGTIRTPGGKTVLAASERITLQLDNGGLMSVQVTGDVVNALVENRGLVSARDGQVYLTALGRGMLMNTVLNVSGVVEASGMHRQDGNIVLDGGDSGVVHLSGTLQADNASGQGGKVVVQGKNILLDKGSNITATGGQGGGEVYVGGGWQGKDSNIRNADKVVMQGGARIDVSATQQGNGGTAVLWSDSYTNFHGQISAKGGETGGNGGRVETSSHGNLQAFGTVSASAKKGKAGNWLLDSADITIVNGSNVSKTETTQSPPHTQFAPTAAGSAVSNTSINNRLNNGTSVTILTHRTRTGTAQGGNITVNAAINKSNGSDVNLTLQAGGNITVNNSITSTEGKLNVNLSGARTSNGSITISNNANITTNGGDITVGTTNTSNRVNISINNTTLNASNGNIQLTGTGTDSGILFAGNNRLTASNIALTGNSTSGNAINLTGTATLNATNNITLTGSSTSGNAINLKGNNTLTASNITLTGESTSGNAINLTDTTGTTTLNATNNITMQGTRVQIKHSNITAGNFALNATVAGSEISNTTLTATNNINLAAKTNSASSGVYLKDARITSTNGSITANGTATANGKATHLDGNVTLNASNGRIKLTGNGHGSASGILFAGNNRLTASNIALTGNSTSGNAINLTGTATLNATNDITLTGSSTSGNAINLTGTATLNATNNITLTGSSTSGNAINLKGNNTLTASNITLTGESTSGNAINLTDTTGTTTLNATNNITMQGTRVQIKHSNITAGNFALNATVAGSEISNTTLTATNNINLAAKTNSASSGVYLKDARITSTNGSITANGTATANGKATHLDGNVTLNASNGRIKLTGNGHGSASGILFAGNNRLTASNIALTGNSTSGNAINLTGTATLNATNDITLTGSSTSGNAINLTGTATLNATNNITLTGSSTSGNAINLKGNNTLTASNITLTGESTSGNAINLTDTTGTTTLNATNNITMQGTRVQIKHSNITAGNFALNATVAGSEISNTTLTATNNINLAAKTNSASSGVYLKDARITSTNGSITANGTATANGKATHLDGNVTLNASNGRIKLTGNGHGSASGILFAGNNRLTASNIALTGNSTSGNAINLTGTATLNATNDITLTGSSTSGNAINLTGTATLNATNNITLTGSSTSGNAINLKGNNTLTASNITLTGESTSGNAINLTDTTGTTTLNATNNITMQGTRVQIKHSNITAGNFALNATVAGSEISNTTLTATNNINLAAKTNSASSGVYLKDARITSTNGSITTNGTATANGKATHLDGNVTLNASNGRIKLTGNGHGSASGILFAGNNRLTASNIALTGNSTSGNAINLTGTATLNATNDITLTGSSTSGNAINLTGTATLNATNNITLTGSSTSGNAINLKGNNTLTASNITLTGESTSGNAINLTDTTGTTTLNATNNITMQGTRVQIKHSNITAGNFALNATVAGSEISNTTLTATNNINLAAKTNSASSGVYLKDARITSTNGSITANGTAPANDNATYLDGNVTLNASNGSIKLTGNGNGSTSGILFAGNNTLTASNITLTGNSEVYWQKLGPEQKLISEEDLNSAVDHHHHHH
glycan array binding signal (z-score) [1]: -0.309 | glycan array binding signal (z-score) [2]: 0.598 | glycan array binding signal (z-score) [3]: -0.358 | glycan array binding signal (z-score) [4]: -0.408 | glycan array binding signal (z-score) [5]: 0.013 | glycan array binding signal (z-score) [6]: -0.416 | glycan array binding signal (z-score) (Gal(a1-3)GalNAc): -0.311 | glycan array binding signal (z-score) [7]: 0.009 | glycan array binding signal (z-score) [8]: 0.47 | glycan array binding signal (z-score) (Gal(a1-4)Gal(b1-4)Glc): -0.276 | glycan array binding signal (z-score) (Gal(a1-4)Gal(b1-4)GlcNAc): -0.243 | glycan array binding signal (z-score) [9]: 0.288 | glycan array binding signal (z-score) [10]: -0.072 | glycan array binding signal (z-score) (Gal(a1-4)GlcNAc): 0.065 | glycan array binding signal (z-score) (Gal(a1-6)Glc): 0.751 | glycan array binding signal (z-score) (Gal(b1-2)Gal): -0.384 | glycan array binding signal (z-score) (Gal(b1-3)Gal): -0.312 | glycan array binding signal (z-score) (Gal(b1-3)Gal(b1-4)GlcNAc): -0.041 | glycan array binding signal (z-score) (Gal(b1-3)GalNAc): -0.107 | glycan array binding signal (z-score) [11]: -0.178 | glycan array binding signal (z-score) [12]: -0.27 | glycan array binding signal (z-score) (Gal(b1-3)GalNAc(b1-3)Gal): -0.269 | glycan array binding signal (z-score) [13]: -0.351 | glycan array binding signal (z-score) [14]: -0.272 | glycan array binding signal (z-score) [15]: -0.336 | glycan array binding signal (z-score) (Gal(b1-3)GlcNAc): -0.234 | glycan array binding signal (z-score) [16]: -0.07 | glycan array binding signal (z-score) [17]: 0.606 | glycan array binding signal (z-score) (Gal(b1-3)GlcNAc(b1-2)Man): 1.81 | glycan array binding signal (z-score) [18]: 1.17 | glycan array binding signal (z-score) [19]: 0.011 | glycan array binding signal (z-score) [20]: 0.227 | glycan array binding signal (z-score) [21]: 1.25 | glycan array binding signal (z-score) [22]: -0.221 | glycan array binding signal (z-score) [23]: -0.484 | glycan array binding signal (z-score) [24]: -0.457 | glycan array binding signal (z-score) [25]: -0.343 | glycan array binding signal (z-score) [26]: -0.177 | glycan array binding signal (z-score) [27]: -0.05 | glycan array binding signal (z-score) [28]: -0.347 | glycan array binding signal (z-score) [29]: -0.345 | glycan array binding signal (z-score) [30]: -0.382 | glycan array binding signal (z-score) [31]: -0.197 | glycan array binding signal (z-score) [32]: -0.409 | glycan array binding signal (z-score) [33]: -0.422
